Measured values: PubChem BioAssay AID886 (National Center for Advancing Translational Sciences (NCATS), 2007)
“And” between values parts separate entries of the source, which are not always exact repeats. Identical values can stand only once. Out of some 73,000 compounds screened, about 2,500 (3.4%) were called active. Inconclusive results, whose numbers are uncertain, are shown with a selection of clear calls. The call rests on the fitted dose curve; in most records, active means well fitted inhibition curve with a large enough effect; inconclusive means small, poorly fitted or top-dose-only effect; inactive means no such curve, though single readings can be large or run the other way. Where the call is inconclusive, the potency comes from a doubtful curve fit.

biological target: 3-hydroxyacyl-CoA dehydrogenase type-2 (Homo sapiens) (UniProt Q99714); experiment: qHTS Assay for Inhibitors of HADH2 (Hydroxyacyl-Coenzyme A Dehydrogenase, Type II); conditions: recombinant HADH2, NADH fluorescence, beta-hydroxybutyryl-CoA; activity change, negative = inhibition: at 57.1 µM (top of the series); further: nearly all actives have a fitted effect of over 60% in size
Method in brief: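 NADH fluorescence (ex 360/em 450 nm) read every 30 s for 4 min; activity taken as last-minus-first time point difference. Enzyme 20 nM, NAD+ 1 mM, beta-hydroxybutyryl-CoA 90 uM, pH 9.0 Tris buffer.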
On the % scale 0 is the no-effect control and ±100 the full control effect; potency means the concentration at half of the fitted maximal effect; tags describe the fitted curve by direction and shape.

Chain of UniProt Q99714 (Q99714 whole entry, looked up): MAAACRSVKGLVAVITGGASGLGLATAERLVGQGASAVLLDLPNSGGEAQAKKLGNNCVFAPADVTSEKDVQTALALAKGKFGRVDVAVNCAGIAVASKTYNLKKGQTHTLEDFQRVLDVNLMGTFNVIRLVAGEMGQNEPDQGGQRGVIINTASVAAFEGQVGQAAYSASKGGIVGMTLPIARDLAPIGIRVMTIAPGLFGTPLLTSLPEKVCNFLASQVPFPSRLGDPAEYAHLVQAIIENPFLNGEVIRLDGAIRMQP
Chain of UniProt Q99714 (Q99714 whole entry, looked up): as above

SMILES	Potency	activity change, negative = inhibition
CN(Cc1ccccc1)S(=O)(=O)c1ccc2[nH]cc(C(=O)NCC3CCCO3)c(=O)c2c1 (centres undefined)	inconclusive: 31.6 µM [inhibitor, single point]	–
COc1ccc(OC)c(NC(=O)c2cc3n(n2)C(C(F)(F)F)CC(c2ccc4c(c2)OCO4)N3)c1 (centres undefined)	inconclusive: 39.8 µM [inhibitor, single point]	–
CCN(CC)C(=O)Oc1ccccc1NC(C)=O	inconclusive: 39.8 µM [inhibitor, single point]	–
N#CCCN1CCN(C(=S)c2ccc(-c3ccc(Cl)c(Cl)c3)o2)CC1	active: 10 µM	–
N#Cc1nc(-c2cccs2)oc1N1CCN(Cc2ccccc2)CC1	active: 31.6 µM	–
CCOc1ccc(C2C=C(c3ccc(F)cc3)Nc3ncnn32)cc1 (centres undefined)	active: 3.98 µM	–
COCc1cc(C)nc2sc(C(=O)Nc3nccs3)c(N)c12	active: 7.94 µM	–
Cc1cc(N2CCCCC2)n2ncc(-c3ccc(Cl)cc3)c2n1	inconclusive: 31.6 µM [inhibitor, single point]	–
COC(=O)[C@@]1(Cc2ccc(F)cc2)[C@H]2c3cc(C(=O)N(C)C)n(CCc4ccc(O)c(O)c4)c3C[C@H]2CN1C(=O)c1ccccc1	active: 15.8 µM	–
CC1=C(\C=C/C(C)=C/C=C\C(C)=C\C(=O)O)C(C)(C)CCC1	inconclusive: 31.6 µM [inhibitor, single point]	–
COCC(=O)/C=C1\Sc2ccccc2N1C	inconclusive: 25.1 µM [inhibitor, partial curve]	–
CCCCN(C)c1nc(-c2ccco2)c2c(c1C#N)CC(C)(C)OC2	inconclusive: 3.98 µM [inhibitor, full curve]	–
CCN1CCn2c1nc(N1CCOCC1)nc2=O	–	inactive: 0.801%
NC(=O)C1CCCN(C(=O)c2ccc(Cl)cc2)C1 (centres undefined)	inconclusive: 39.8 µM [inhibitor, single point]	–
CC(NC(=O)CSc1nc2ccccc2c(=O)n1CCCO)c1ccccc1 (centres undefined)	–	inactive: 7.01%
O=S(=O)(c1cccs1)N1CCN(Cc2nc3ccccc3s2)CC1	–	inactive: 6.07%
CCCCNC(=O)c1cc2c(-c3ccc(Cl)cc3)nn(C)c2s1	inconclusive: 39.8 µM [inhibitor, single point]	–
CCN1CCCC1Cn1c(-c2ccccc2)nc2c(N(CCOC)CCOC)nc(C)nc21 (centres undefined)	inconclusive: 20 µM [inhibitor, single point]	–
COc1ccc(-c2cc(C(F)(F)F)nc(SCCC(=O)N3CCOCC3)n2)cc1	inconclusive: 31.6 µM [inhibitor, single point]	–
C=CCc1cccc2cc(C(=O)NC(C)(C)C)c(=O)oc12	inconclusive: 3.98 µM [inhibitor, partial curve]	–
CCc1nnc(NC(=O)CSc2nc3c(cc2C#N)CCC3)s1	inconclusive: 31.6 µM [inhibitor, single point]	–
C[C@H](O)[C@H](O)[C@@H]1CNc2nc(N)[nH]c(=O)c2N1	inconclusive: 31.6 µM [inhibitor, single point]	–

SMILES	Potency	activity change, negative = inhibition
C/C(N)=C(/C#N)C(=O)CSc1nnc(Nc2c(C)cccc2C)s1	inconclusive: 39.8 µM [inhibitor, single point]	–
C[C@@H]1NC(=O)C/C=C\[C@@H](C)[C@@H]2C=C[C@H](O)[C@@H](COC(=O)[C@H](C)NC(=O)C/C=C\[C@@H](C)[C@@H]3C=C[C@H](O)[C@@H](COC1=O)O3)O2	–	inactive: -3.66% [at 11.4 µM]
O=c1c(O)c(-c2cc(O)c(O)c(O)c2)oc2cc(O)cc(O)c12	active: 126 nM and active: 158 nM and active: 199 nM	–
COC(=O)[C@@]1(Cc2ccccc2)[C@H]2c3cc(C(=O)N(C)C)n(Cc4nc5ccccc5[nH]4)c3C[C@H]2CN1C(=O)c1ccccc1	inconclusive: 39.8 µM [inhibitor, single point]	–
Cc1nnc(SCC(=O)NCc2ccc3c(c2)OCO3)s1	–	inactive: -1.51%
Cc1ccc(-c2nc3c(=O)n(C)c4ccccc4c3o2)cc1	inconclusive: 39.8 µM [inhibitor, single point]	–
COc1ccccc1OCC(=O)Nc1ccc(O)cc1C(=O)O	inconclusive: 0.126 µM [inhibitor, full curve, poor fit]	–
CC(=O)c1cc(C(=O)Nc2ccccc2C(=O)O)oc1C	–	inactive: -3.67%
c1ccc2[nH]c(SN3CCOCC3)nc2c1	inconclusive: 0.251 µM [inhibitor, full curve]	–
CC(C)C1=CC2=CC[C@H]3[C@@](C)(CCC[C@]3(C)C(=O)O)[C@@H]2CC1	inconclusive: 39.8 µM [inhibitor, single point]	–
N#CC(C#N)=C(N)/C(C#N)=C/c1ccc(O)cc1	inconclusive: 25.1 µM [inhibitor, partial curve]	–
Cc1ccc2nc(-c3ccc(NC(=O)c4ccc(N)cc4)c(S(=O)(=O)O)c3)sc2c1	active: 2.51 µM	–
Cc1cc2ccc(C)c(C)c2nc1SCC#N	–	inactive: 0.466%
COc1cc(CNc2ccc(N3CCOCC3)c(C(=O)O)c2)ccc1OCC(N)=O	–	inactive: -24.3%
COc1ccc(OC)c(N2C(=O)[C@@H]3C(c4ccccc4Cl)=NO[C@@H]3C2=O)c1	inconclusive: 31.6 µM [inhibitor, single point]	–
CCOc1ccccc1/C=c1\sc2nc(-c3ccco3)nn2c1=O	inconclusive: 20 µM [inhibitor, single point]	–
Cc1noc(C)c1-c1cc(NCc2cccnc2)ncn1	inconclusive: 39.8 µM [inhibitor, single point]	–
O=C(COc1ccc(F)cc1)NCC1CCCO1 (centres undefined)	inconclusive: 1 µM [inhibitor, single point]	–
COc1cc(Sc2ccc(C)cc2)c(OC)cc1N	inconclusive: 20 µM [inhibitor, partial curve]	–
O=C(Nc1ncc(Br)s1)C(Cc1ccccc1)n1cccc1 (centres undefined)	inconclusive: 39.8 µM [inhibitor, single point]	–
CC(C)(C)CNCCO	–	inactive: -6.39% [at 11.4 µM]
COC(=O)C1=C(C)N(Cc2ccccc2)c2c(C(=O)OC)c(C(=O)OC)c(C(=O)OC)c(=O)n2C1c1ccccc1 (centres undefined)	–	inactive: 7.84% [at 11.4 µM] and inactive: 7.73% [at 11.4 µM]
